# Measured values published in article PMC7819943, “Rice protein-binding microarrays: a tool to detect cis-acting elements near promoter regions in rice”.
# This is one part of the list.
# Biological target: T1, OsWOX13 (Oryza sativa, UniProt Q5QMM3 1-267)
# T1 sequence: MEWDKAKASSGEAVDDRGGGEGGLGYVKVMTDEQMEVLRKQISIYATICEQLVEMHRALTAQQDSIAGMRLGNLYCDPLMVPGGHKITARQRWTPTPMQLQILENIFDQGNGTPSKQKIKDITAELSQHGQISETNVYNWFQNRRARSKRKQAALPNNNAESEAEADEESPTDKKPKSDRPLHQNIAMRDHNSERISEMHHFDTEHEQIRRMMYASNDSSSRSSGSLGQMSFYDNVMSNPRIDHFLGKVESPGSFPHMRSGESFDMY
# Assay: protein-binding microarray (RPBM); PBS, 2% BSA, 51.3 ng/ul salmon testes DNA, 50 uM zinc acetate, 200 nM TF, 25 C, 1 h; high values mean tight binding
# Details: protein: recombinant; tags: N-terminal polyhistidine and DsRed monomer fusion (pET32a); label: CyDye5-dUTP incorporated in the synthesized complementary strand; 3' TTTTT single-stranded linker to array surface; dsDNA, one strand shown
# Method in brief: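 Transcription factors were each fused at the N-terminus to a polyhistidine tag plus DsRed and expressed in E. coli BL21-CodonPlus before Ni–NTA purification. Binding to a double-stranded custom Agilent array was carried out with 200 nM protein at 25 °C for 1 h in PBS, 2% BSA, salmon testes DNA and 50 µM zinc acetate. The binding signal is per-feature fluorescence intensity, in arbitrary units, on an Axon 4000B scanner.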
row,Sequence,binding signal
1,CACAAATCATAACTGCGGAAGCAACCATAATTTATTGCCCCGGAGTCACCTAGTGCAG,8930 fluorescence intensity (a.u.)
2,TTGTTTGAAAATTAAGATGATTGAAGAGTGAACCTTATTACGGAGTCACCTAGTGCAG,23700 fluorescence intensity (a.u.)
3,ACCCAATTACGGAGTAGAGTTTAGCAGTCCCTAAGTAAGCCGGAGTCACCTAGTGCAG,3490 fluorescence intensity (a.u.)
4,AGTGATACATCACAAAATTACATATACAAATTTATGGTAGCGGAGTCACCTAGTGCAG,3400 fluorescence intensity (a.u.)
5,AACGATCTGCAGCAAGTTAATTAATTTTATGTGCGTCGATCGGAGTCACCTAGTGCAG,4580 fluorescence intensity (a.u.)
6,AATATCTAATTTTGACTGTAGATATCTACTCAAATATTGTCGGAGTCACCTAGTGCAG,4740 fluorescence intensity (a.u.)
7,TTAGAGTATATGATATAATAATCAATCATATCTCAATCCTCGGAGTCACCTAGTGCAG,7620 fluorescence intensity (a.u.)
8,AGTTGATAAATTTCAGAAAATTTTGATGACAAAGCAAAGCCGGAGTCACCTAGTGCAG,12800 fluorescence intensity (a.u.)
9,CGCTAATTCCCAGTCAGTCACTGTCAAAATGTTTGTGGTACGGAGTCACCTAGTGCAG,39600 fluorescence intensity (a.u.)
10,TTTATTTGATTTTCTTCTTGTTATTTACATGTTCACAATGCGGAGTCACCTAGTGCAG,13400 fluorescence intensity (a.u.)
11,TGCTGGAAGCCTAATTATTAATGCTGATGAATCAAGACGCCGGAGTCACCTAGTGCAG,4020 fluorescence intensity (a.u.)
12,TCGTAGTTATGTCCAATCTAATTATAAATTATTAGAAATTCGGAGTCACCTAGTGCAG,7860 fluorescence intensity (a.u.)
13,TTCCTTCAATCATAAATATTTGATATTTATGACAAGATTTCGGAGTCACCTAGTGCAG,18700 fluorescence intensity (a.u.)
14,AGCCTATACTGTTGCCTAATTGGCAATTGTCAAGTCAACCCGGAGTCACCTAGTGCAG,23000 fluorescence intensity (a.u.)
15,CAAGTATAGTCACAGTGATTGATTAATTAGAAACCTGATCCGGAGTCACCTAGTGCAG,51800 fluorescence intensity (a.u.)
16,CCAGCTGATCAAGAGCTCTTAATTAGCTAGCTAGTGATTACGGAGTCACCTAGTGCAG,7680 fluorescence intensity (a.u.)
17,ACATTGATGGACTGTAGGACTTGTGTAGCGCAAGATGTGTCGGAGTCACCTAGTGCAG,28800 fluorescence intensity (a.u.)
18,AATAAATAACATCTTCAATTTATACAATGGTAAGTAAGTTCGGAGTCACCTAGTGCAG,7430 fluorescence intensity (a.u.)
19,CCACACAAACTGATAGTTTGTTGTCGTTTACTAGACAACCCGGAGTCACCTAGTGCAG,6050 fluorescence intensity (a.u.)
20,TTTGATGGCTAAACTGATGGAGATACATGATAGCATGTAGCGGAGTCACCTAGTGCAG,24000 fluorescence intensity (a.u.)
21,CTCAAAATAAATTGGTGTGGTGATGAAGCCATGGGTGTATCGGAGTCACCTAGTGCAG,23100 fluorescence intensity (a.u.)
22,TATAATGACATATATAAGATTGGTTTAAGGTGTTATCAACCGGAGTCACCTAGTGCAG,19400 fluorescence intensity (a.u.)
23,ATATTGATCATGCGGTTAAGTAGATTTTACATTTATATGCCGGAGTCACCTAGTGCAG,3420 fluorescence intensity (a.u.)
24,ACTCAAATTGGTATACTCCATATTTTGTGCTGGAGCTAGGCGGAGTCACCTAGTGCAG,17900 fluorescence intensity (a.u.)
25,AATAGATGAAGAATAAATATGATTGGTAGAGAAGAGAGATCGGAGTCACCTAGTGCAG,5860 fluorescence intensity (a.u.)
26,AGAGCTAAATTGCACCGGTTTTAATAGTTAGAGGGTTATGCGGAGTCACCTAGTGCAG,4540 fluorescence intensity (a.u.)
27,AAGCATCAATTCGTTGCCTGATTAGTACAACACTGTTGTGCGGAGTCACCTAGTGCAG,5420 fluorescence intensity (a.u.)

row,Sequence,binding signal
1,TAATCATTGAATGGTTGAATTACTATTCTGTGGATGAGTCCGGAGTCACCTAGTGCAG,4240 fluorescence intensity (a.u.)
2,TTCTGAATTGATCTAATTATGGCATAAGTGCGAGTTATTGCGGAGTCACCTAGTGCAG,26900 fluorescence intensity (a.u.)
3,CCCAGATTGGAAATCACATGAAAACAACTATGACTTTCCTCGGAGTCACCTAGTGCAG,40900 fluorescence intensity (a.u.)
4,CGTGAATGAATATCTATCTGTATGGTCTACTCCCTACGTCCGGAGTCACCTAGTGCAG,5020 fluorescence intensity (a.u.)
5,TTGCTGATTTAGAATCATGTGTATGAACTTCCGTATGCTCCGGAGTCACCTAGTGCAG,16500 fluorescence intensity (a.u.)
6,CGGTCAATCATCTTCACCAATTTGGGCGTTCACGCGGTTGCGGAGTCACCTAGTGCAG,30800 fluorescence intensity (a.u.)
7,AATTAATAATTGCAATAGTTAGGTTATGAAGACTTCAGAGCGGAGTCACCTAGTGCAG,15300 fluorescence intensity (a.u.)
8,GAGGCGAGTGGGAGGGTGGGAGGGAGGGATGAAAGAGATGCGGAGTCACCTAGTGCAG,4480 fluorescence intensity (a.u.)
9,TTTTAATTACTGATCTTCTTACAATTGCTTTTATGCTGTCCGGAGTCACCTAGTGCAG,19700 fluorescence intensity (a.u.)
10,ATTAATTTGCTTACCGTCAGTGTCTCGACTCTTGACTACCCGGAGTCACCTAGTGCAG,28000 fluorescence intensity (a.u.)
11,TTCAGGAGTTCTGGTAATTGAGAAAACGAGACAGCATCATCGGAGTCACCTAGTGCAG,4910 fluorescence intensity (a.u.)
12,GAATGAATTGATTTGTTGTGTAACTAACATAGTGTGAGGTCGGAGTCACCTAGTGCAG,38100 fluorescence intensity (a.u.)
13,TGCTTTATTATTTGATTGATTGATCACTTGTTGGATGGGACGGAGTCACCTAGTGCAG,64200 fluorescence intensity (a.u.)
14,TGGTTCTAAATTGGCCTCCAACCAAATACAACTCTACTCTCGGAGTCACCTAGTGCAG,3840 fluorescence intensity (a.u.)
15,GGCTAATTCACATTAGCTCAAAATTAGCCTACTTGTTTGGCGGAGTCACCTAGTGCAG,4200 fluorescence intensity (a.u.)
16,ATAAATTAATCCAGGCGTGATCTCCCGGCGCCCGCACGCGCGGAGTCACCTAGTGCAG,7300 fluorescence intensity (a.u.)
17,CCTAATTGCAGCTCATGATTTTCTAACAAAATATATATCCCGGAGTCACCTAGTGCAG,26200 fluorescence intensity (a.u.)
18,GGTTAACTTTGATTCACATTCCAACTCATCCATTTTCTAACGGAGTCACCTAGTGCAG,3390 fluorescence intensity (a.u.)
19,ATATTTTCTAATTTTCAATTTTCATTTGCACACACTTCTGCGGAGTCACCTAGTGCAG,5390 fluorescence intensity (a.u.)
20,ATTAATTAAGTTACTGTGTTACTCCTAGCTACTCCTCCGTCGGAGTCACCTAGTGCAG,22600 fluorescence intensity (a.u.)
21,TCGTTTCCGTCAACTTAATTTGAATTCGCTACAGATGCTTCGGAGTCACCTAGTGCAG,4650 fluorescence intensity (a.u.)
22,AACTGATTAGTGATTACACTACACATGAAACTGAGAAAAGCGGAGTCACCTAGTGCAG,39300 fluorescence intensity (a.u.)
23,GCTAGGAGCATATAATTGGATGTACACAATCCACCCACACCGGAGTCACCTAGTGCAG,3760 fluorescence intensity (a.u.)
24,GTCGCCCTGTCACAATCAATCGTCCATTGAGGATAAAGCGCGGAGTCACCTAGTGCAG,8000 fluorescence intensity (a.u.)
25,GATAATTTCATAAATTTCGACCATCATTACAAAATCAGTTCGGAGTCACCTAGTGCAG,22200 fluorescence intensity (a.u.)
26,ACTTAAAATTATCTGATTTAGGCCTTGTTTAGTTTAGGGGCGGAGTCACCTAGTGCAG,13300 fluorescence intensity (a.u.)
27,GGATGACTAGAGTATTAGATTAGATATAAATGATTTAGAACGGAGTCACCTAGTGCAG,9640 fluorescence intensity (a.u.)
